# Source: a collection of fitness landscapes (doi:10.1126/science.1257360)
# This is one part of the list.
# B1: PhoQ; a variant is named by its letters at X, in order, P23837 (parent)
# chain: MKKLLRLFFPLSLRVRFLLATAAVVLVLSLAYGMVALIGYSVSFDKTTFRLLRGESNLFYTLAKWENNKLHVELPENIDKQSPTMTLIYDENGQLLWAQRDVPWLMKMIQPDWLKSNGFHEIEADVNDTSLLLSGDHSIQQQLQEVREDDDDAEMTHSVAVNVYPATSRMPKLTIVVVDTIPVELKSSYMVWSWFIYVLSANLLLVIPLLWVAAWWSLRPIEALAKEVRELEEHNRELLNPATTRELTSLVRNLNRLLKSERERYDKYRTTLTDLTHSLKTPLXXLQXXLRSLRSEKMSVSDAEPVMLEQISRISQQIGYYLHRASMRGGTLLSRELHPVAPLLDNLTSALNKVYQRKGVNISLDISPEISFVGEQNDFVEVMGNVLDNACKYCLEFVEISARQTDEHLYIVVEDDGPGIPLSKREVIFDRGQRVDTLRPGQGVGLAVAREITEQYEGKIVAGESMLGGARMEVIFGRQHSAPKDE
# Variants of: B1
# Experiment: enrichment ratio after two sorts for PhoP signalling (ratio (wild type AVST 3.29)); higher = more functional
# Settings: with PhoP (E. coli)
row,Variant,enrichment ratio
1,PFKH,≤ 0.25
2,TYVD,≤ 0.25
3,NGRH,≤ 0.25
4,WMNH,≤ 0.25
5,GRLR,≤ 0.25
6,PKAS,≤ 0.25
7,MPIP,≤ 0.25
8,RMMG,≤ 0.25
9,LNDG,≤ 0.25
10,EVFV,≤ 0.25
11,FPIG,≤ 0.25
12,TILH,≤ 0.25
13,EHHT,≤ 0.25
14,MADI,≤ 0.25
15,ECYI,≤ 0.25
16,WSYC,≤ 0.25
17,PCRF,≤ 0.25
18,YISQ,0.456
19,SQDC,≤ 0.25
20,ILKI,≤ 0.25
21,QAFA,7.62
22,YRRI,≤ 0.25
23,KYIS,≤ 0.25
24,QPPA,≤ 0.25

row,Variant,enrichment ratio
1,WFFF,≤ 0.25
2,AIIQ,5.33
3,SHHT,≤ 0.25
4,CFNI,≤ 0.25
5,NHCH,≤ 0.25
6,VQAM,≤ 0.25
7,QDAD,≤ 0.25
8,WHQS,≤ 0.25
9,GVCN,≤ 0.25
10,RYPD,≤ 0.25
11,NRLD,≤ 0.25
12,PGTG,≤ 0.25
13,SHHL,≤ 0.25
14,LRNY,≤ 0.25
15,VGHI,≤ 0.25
16,KAYY,≤ 0.25
17,GMGF,≤ 0.25
18,MKNL,≤ 0.25
19,EFAA,≤ 0.25
20,MTSL,7.89
21,ISTS,≤ 0.25
22,WETY,≤ 0.25
23,VFQH,≤ 0.25
24,MGAC,6.95

row,Variant,enrichment ratio
1,ICTL,≤ 0.25
2,VMSF,≤ 0.25
3,FTWT,≤ 0.25
4,LRYH,≤ 0.25
5,MVVK,≤ 0.25
6,NESP,≤ 0.25
7,YFFM,≤ 0.25
8,NIDR,≤ 0.25
9,VNKL,≤ 0.25
10,HFAM,≤ 0.25
11,KFEP,≤ 0.25
12,SWDF,≤ 0.25
13,VEEG,≤ 0.25
14,QHNT,≤ 0.25
15,IASH,≤ 0.25
16,DLTC,≤ 0.25
17,ERDT,≤ 0.25
18,NICP,≤ 0.25
19,MMQD,≤ 0.25
20,LFFD,≤ 0.25
21,DNAM,≤ 0.25
22,ITAC,≤ 0.25
23,ITCF,≤ 0.25
24,EVNR,≤ 0.25

row,Variant,enrichment ratio
1,NEDI,≤ 0.25
2,HWSF,≤ 0.25
3,WDSH,≤ 0.25
4,TEQT,23.1
5,HGDF,≤ 0.25
6,LCQG,≤ 0.25
7,ISCI,1.38
8,ETSF,≤ 0.25
9,HEVS,≤ 0.25
10,IKNA,≤ 0.25
11,RHTY,≤ 0.25
12,FKKV,≤ 0.25
13,EWRS,≤ 0.25
14,AFDK,≤ 0.25
15,TWKC,≤ 0.25
16,DAVK,≤ 0.25
17,PRKN,≤ 0.25
18,FTTY,≤ 0.25
19,SQYQ,≤ 0.25
20,KISW,≤ 0.25
21,DTRT,≤ 0.25
22,NWQN,≤ 0.25
23,RNFP,≤ 0.25
24,TWFT,≤ 0.25

row,Variant,enrichment ratio
1,MGLR,≤ 0.25
2,LACY,≤ 0.25
3,QYGY,≤ 0.25
4,YMCM,≤ 0.25
5,LQTC,≤ 0.25
6,GIFL,≤ 0.25
7,SKNS,≤ 0.25
8,MDQF,≤ 0.25
9,LVIP,≤ 0.25
10,FKTY,≤ 0.25
11,SPRH,≤ 0.25
12,KHLP,≤ 0.25
13,NHGV,≤ 0.25
14,CRAS,≤ 0.25
15,PRLS,≤ 0.25
16,GLEG,≤ 0.25
17,AQLD,3.24
18,MRDR,≤ 0.25
19,QAAN,≤ 0.25
20,WCRD,≤ 0.25
21,TPVE,≤ 0.25
22,RTPW,≤ 0.25
23,YPFA,≤ 0.25
24,DSPV,≤ 0.25

row,Variant,enrichment ratio
1,TTEM,≤ 0.25
2,QTQP,≤ 0.25
3,DTKR,≤ 0.25
4,GVRP,≤ 0.25
5,PTFF,≤ 0.25
6,EQVP,≤ 0.25
7,IPCC,≤ 0.25
8,SSYE,≤ 0.25
9,WFML,≤ 0.25
10,TAWP,≤ 0.25
11,PYHY,≤ 0.25
12,VKPT,≤ 0.25
13,KSWI,≤ 0.25
14,FKPW,≤ 0.25
15,GMWW,≤ 0.25
16,EVKP,≤ 0.25
17,HHMR,≤ 0.25
18,TYVM,≤ 0.25
19,YTCD,0.419
20,SLNP,≤ 0.25
21,QDGY,≤ 0.25
22,NVIS,≤ 0.25
23,RMVC,≤ 0.25
24,FFWT,≤ 0.25

row,Variant,enrichment ratio
1,KKDA,≤ 0.25
2,VTAS,≤ 0.25
3,VNPM,≤ 0.25
4,RVEY,≤ 0.25
5,CYGA,≤ 0.25
6,SGES,≤ 0.25
7,HRST,≤ 0.25
8,GKHC,≤ 0.25
9,STEF,≤ 0.25
10,QTYK,≤ 0.25
11,QPRR,≤ 0.25
12,NHVH,≤ 0.25
13,QGCA,≤ 0.25
14,RRKM,≤ 0.25
15,RSMQ,≤ 0.25
16,YMFI,≤ 0.25
17,QHHT,≤ 0.25
18,NHYS,≤ 0.25
19,QTRG,≤ 0.25
20,NTPS,≤ 0.25
21,GPID,≤ 0.25
22,EAWF,≤ 0.25
23,YRED,≤ 0.25
24,FMSA,≤ 0.25

row,Variant,enrichment ratio
1,QECV,8.7
2,LMAP,≤ 0.25
3,TGCG,24.4
4,NMYY,≤ 0.25
5,SGVW,≤ 0.25
6,AADY,≤ 0.25
7,NPGD,≤ 0.25
8,KLQD,≤ 0.25
9,TMSQ,13.5
10,AQCN,4.1
11,VRWH,≤ 0.25
12,LPFK,≤ 0.25
13,FVLH,2.94
14,GSGI,9.38
15,PMRA,≤ 0.25
16,DILH,≤ 0.25
17,MEYW,≤ 0.25
18,GRMT,≤ 0.25
19,RNHS,≤ 0.25
20,FEMG,1.94
21,VFVC,≤ 0.25
22,PKDA,≤ 0.25
23,SRVY,≤ 0.25
24,TWKL,≤ 0.25

row,Variant,enrichment ratio
1,GESL,2.52
2,IFWC,1.04
3,TLGD,0.374
4,QLSN,≤ 0.25
5,IIPK,≤ 0.25
6,RHLY,0.682
7,ERFY,≤ 0.25
8,EKLM,≤ 0.25
9,DLQR,≤ 0.25
10,AGVT,6.41
11,FKIA,≤ 0.25
12,VKYN,≤ 0.25
13,LCHH,≤ 0.25
14,QYAK,≤ 0.25
15,VLDP,≤ 0.25
16,PKLN,0.501
17,FQKM,≤ 0.25
18,KHPC,≤ 0.25
19,TFAT,≤ 0.25
20,PNSK,≤ 0.25
21,KTAW,≤ 0.25
22,RQRP,≤ 0.25
23,LVIV,≤ 0.25
24,DYSW,0.37

row,Variant,enrichment ratio
1,VEFS,≤ 0.25
2,QCFN,≤ 0.25
3,TGTR,≤ 0.25
4,FLPK,≤ 0.25
5,QQQA,≤ 0.25
6,TTSY,9.58
7,FIYK,≤ 0.25
8,FSSR,≤ 0.25
9,FQTK,≤ 0.25
10,SSYT,≤ 0.25
11,LCHD,≤ 0.25
12,QQHS,≤ 0.25
13,FIGK,≤ 0.25
14,SKDT,≤ 0.25
15,ASDD,≤ 0.25
16,HWEG,≤ 0.25
17,YCGI,0.468
18,SIRN,≤ 0.25
19,NPRV,≤ 0.25
20,MRTG,≤ 0.25
21,DPIG,≤ 0.25
22,NTFI,≤ 0.25
23,LLKP,≤ 0.25
24,HNCF,≤ 0.25

row,Variant,enrichment ratio
1,DLKM,≤ 0.25
2,RSHF,≤ 0.25
3,WNVD,≤ 0.25
4,PNIV,≤ 0.25
5,YQHL,≤ 0.25
6,DDII,≤ 0.25
7,NLWS,≤ 0.25
8,NYFR,≤ 0.25
9,PACA,≤ 0.25
10,IGLS,≤ 0.25
11,GMVA,≤ 0.25
12,IRGV,≤ 0.25
13,DPFT,≤ 0.25
14,YYTS,≤ 0.25
15,FTDM,≤ 0.25
16,FLHP,≤ 0.25
17,TGIH,≤ 0.25
18,FMYS,≤ 0.25
19,MIHE,≤ 0.25
20,ASQP,≤ 0.25
21,EYCP,≤ 0.25
22,WCKC,≤ 0.25
23,QKLR,≤ 0.25
24,EVSS,≤ 0.25

row,Variant,enrichment ratio
1,VKAS,≤ 0.25
2,EFYW,≤ 0.25
3,EICR,≤ 0.25
4,TYFI,≤ 0.25
5,HDRP,≤ 0.25
6,VYKW,≤ 0.25
7,ACKQ,≤ 0.25
8,QHWY,≤ 0.25
9,HNVD,≤ 0.25
10,AQIQ,27.9
11,DQKV,≤ 0.25
12,AVNK,≤ 0.25
13,RPSL,≤ 0.25
14,TMLI,4.59
15,YMSQ,≤ 0.25
16,WGMH,≤ 0.25
17,WNRP,≤ 0.25
18,IRFA,≤ 0.25
19,YDLT,≤ 0.25
20,WHGS,≤ 0.25
21,FPND,≤ 0.25
22,HYKE,≤ 0.25
23,WDHI,≤ 0.25
24,WTGS,≤ 0.25

row,Variant,enrichment ratio
1,EFCH,≤ 0.25
2,LYME,≤ 0.25
3,WPWN,≤ 0.25
4,KIPA,≤ 0.25
5,GGMA,≤ 0.25
6,NTRT,≤ 0.25
7,SAMQ,9.86
8,QGID,≤ 0.25
9,WYCI,≤ 0.25
10,MDGH,≤ 0.25
11,ELRE,≤ 0.25
12,CKFL,≤ 0.25
13,TEWW,≤ 0.25
14,PVFM,≤ 0.25
15,NIRM,≤ 0.25
16,KSAM,≤ 0.25
17,NKNY,≤ 0.25
18,RIKF,≤ 0.25
